Among the data in article PMC10668032 are binding signal values, retold here.

The other results are listed elsewhere or left out. At the low end of the ranking the order means little.

The assay has as its target SIX1 homeodomain (reference allele) (UniProt Q15475). As to the kind of experiment: universal protein binding microarray. As to conditions: Universal all-10-mer PBM (8x60K, AMADID 030236), 300 nM GST-tagged protein, Alexa Fluor 488 anti-GST; buffer, salt, pH and temperature not stated; high values mean tight binding; most listed sequences are background and not binding sites; double strand, one strand shown.
For AACATTAG, the binding signal was -0.319 E-score.
As to CCCGTCGC, the binding signal is -0.015 E-score.
GTTGCGGA: the binding signal was -0.119 E-score.
ATAATCAT: the binding signal is 0.131 E-score.
For the sequence CAGGACCA, the binding signal is -0.0298 E-score.
Take AAAGGGAT: the binding signal worked out at 0.253 E-score.
As for GCGTGCAA, the binding signal was -0.255 E-score.
The same measure for AGAGGCAT: 0.0442 E-score.
Turning to GTCATGTA, the binding signal is 0.0366 E-score.
Consider ATACGATG, for which the binding signal was found to be 0.277 E-score.
On to CGCGTTCC, for which the binding signal came to 0.0496 E-score.
ACGTAGAA: the binding signal was -0.0543 E-score.
Consider GGGCTGGA, for which the binding signal stood at 0.0299 E-score.
The same measure for ACTTCGGC: -0.188 E-score; for CGAGCCGA: -0.0389 E-score; for CTCGGGGA: 0.177 E-score.
The same measure for GATCCAAC: 0.274 E-score.
As to ACGCCGCG, the binding signal was -0.278 E-score.
As to CTGTCGCC, the binding signal was -0.123 E-score.
As for ACAGACAT, the binding signal is -0.0243 E-score.
CGCTCAAG: the binding signal was -0.251 E-score.
As for CAAGTAAC, the binding signal is -0.0823 E-score.
Consider AGTAAGGA, for which the binding signal is -0.101 E-score.
Consider GGCCACAC, for which the binding signal is -0.3 E-score.
As for CCAGGTTC, the binding signal was -0.0107 E-score.
Turning to ATACTTTC, the binding signal was 0.16 E-score.
The same measure for CTGGACAA: -0.161 E-score; for AAGGGCCA: -0.204 E-score; for ATGGCGTA: 0.132 E-score.
Consider AAATAATC, for which the binding signal was determined as 0.0705 E-score.
The same measure for ACGAGCCG: 0.0343 E-score; for CATGGGCA: -0.0172 E-score.
Regarding AGTCACAG, the binding signal is -0.0283 E-score.
With AACGGAGG, the binding signal is -0.143 E-score.
For ATCTATTA, the binding signal is 0.0939 E-score.
Consider AAACACTG, for which the binding signal was -0.033 E-score.
For TGAAATAA, the binding signal was -0.0822 E-score.
Turning to CAAGCCCA, the binding signal was -0.269 E-score.
For the sequence AAAGCAAG, the binding signal was -0.272 E-score.
As for CACTCCCA, the binding signal is -0.0912 E-score.
The same measure for CGTAGTGC: -0.19 E-score; for CCTTCCGC: -0.0466 E-score; for ACGCAAGT: -0.133 E-score.
As for CACTTGCC, the binding signal is -0.171 E-score.
The same measure for ACCGCAAG: -0.0789 E-score; for GTATCGAA: 0.43 E-score.
Consider CATATGTA, for which the binding signal was 0.0037 E-score.
For the sequence GCATTTTA, the binding signal is -0.179 E-score.
On to AGGCGCTA, for which the binding signal was -0.0853 E-score.
The same measure for CAGCAGCA: -0.166 E-score; for AAAATCAA: -0.232 E-score; for ATCAGCCA: 0.237 E-score.
The same measure for AACATACT: -0.0268 E-score; for GGTCTCTA: -0.201 E-score.
Regarding ACAAAAGC, the binding signal is -0.28 E-score.
The same measure for CATCCGAA: 0.111 E-score; for CCTAGCAC: -0.0628 E-score; for GGGGCGCA: -0.0926 E-score.
With GAATGGCC, the binding signal is -0.219 E-score.
As for CCACGGAA, the binding signal came to 0.0785 E-score.
The same measure for GTACATAA: -0.033 E-score; for CTTAAACC: -0.186 E-score.
As for CGGCTTCA, the binding signal worked out at 0.0272 E-score.
On to ATCGCTTA, for which the binding signal was 0.133 E-score.
As for ACTGTTTG, the binding signal is -0.214 E-score.
Regarding CGCCTCGA, the binding signal came out at 0.0119 E-score.
As to AGGATTTC, the binding signal is -0.149 E-score.
For the sequence GTGGAAAA, the binding signal is -0.0804 E-score.
Take TATCTTCA: the binding signal was 0.251 E-score.
The same measure for ACCTTGGA: -0.314 E-score; for CCGAAATC: 0.0113 E-score; for TCAGCGCA: -0.266 E-score.
With CTATACTC, the binding signal was 0.243 E-score.
The same measure for AGGATCTC: 0.292 E-score; for ATCTGGAG: 0.247 E-score.
As to CAGCCCGC, the binding signal is -0.122 E-score.
In the case of ACGGCGTA, the binding signal was found to be 0.0434 E-score.
In the case of ATTCCCCA, the binding signal was -0.07 E-score.
With CATCAAAG, the binding signal is -0.0974 E-score.
Consider ACGCTCTA, for which the binding signal was -0.00944 E-score.
Turning to CCTTGAAG, the binding signal was -0.0657 E-score.
With ACACAGAG, the binding signal was -0.0351 E-score.
The same measure for AGGTTGCG: -0.263 E-score; for ACATGTAT: 0.226 E-score.
As to TAACGCCA, the binding signal was 0.0447 E-score.
The same measure for GGTCCTTA: 0.0117 E-score; for GGTAAAAA: -0.104 E-score.
The same measure for CATTACCA: -0.0648 E-score; for CCGGATGC: 0.0629 E-score; for CCGGGATC: 0.375 E-score.
Consider GCCGCCGC, for which the binding signal was -0.191 E-score.
Regarding CGCTGGTC, the binding signal was -0.168 E-score.
The same measure for ATCTGCAC: 0.118 E-score.
Consider GGCCCCCA, for which the binding signal was -0.348 E-score.
For the sequence AGGGGAAA, the binding signal was -0.13 E-score.
Regarding ACTAGGAT, the binding signal stood at 0.187 E-score.
The same measure for GCAGGGTA: 0.199 E-score; for GACGAGCA: -0.236 E-score.
The same measure for ACCCTAGA: 0.0547 E-score; for CAGCAAAG: -0.0666 E-score; for CGACGGTC: -0.241 E-score.
The same measure for AACAGTCG: -0.106 E-score; for AAAATCCT: -0.241 E-score.
In the case of TAAATGCA, the binding signal was -0.255 E-score.
Turning to CCTCCGGA, the binding signal came out at 0.203 E-score.
For CTGGACGC, the binding signal was -0.188 E-score.
For CTGGATGC, the binding signal came out at 0.00822 E-score.
For AGCAGCGC, the binding signal is -0.167 E-score.
With TACGACGA, the binding signal was -0.109 E-score.
As for ACAATGGG, the binding signal was determined as 0.0409 E-score.
With GTGCCCAA, the binding signal was -0.146 E-score.
GGGGTTCA: the binding signal is 0.0958 E-score.
Take ACCGAGTG: the binding signal worked out at 0.027 E-score.
Turning to CGCCTGGC, the binding signal is -0.281 E-score.
As for TCAACCAA, the binding signal came out at 0.0341 E-score.
Take CGTAATAC: the binding signal came out at 0.256 E-score.
The same measure for CCTTTCAG: -0.202 E-score.
Turning to CGGCATTA, the binding signal was -0.154 E-score.
ACAGACGG: the binding signal was -0.0964 E-score.
The same measure for AACGCGCA: -0.145 E-score; for ACGGCCGG: -0.045 E-score.
The same measure for ACAATTGT: -0.107 E-score.
As for GTCCGAAC, the binding signal is -0.262 E-score.
For GCTTTTCA, the binding signal is -0.0932 E-score.
For CACAATCC, the binding signal came out at 0.179 E-score.
Turning to ATAACCCC, the binding signal came out at 0.251 E-score.
As to AGCCCAGA, the binding signal was 0.0639 E-score.
Consider AACTGGCA, for which the binding signal is -0.129 E-score.
The same measure for CGTTCCGA: -0.021 E-score; for AAGGCGGC: -0.144 E-score; for GGACGAGA: 0.0597 E-score.
In the case of ATTTCATC, the binding signal came out at 0.0428 E-score.
Take AGGAGTCA: the binding signal was 0.0248 E-score.
For AGGGGATA, the binding signal worked out at 0.425 E-score.
Regarding GCGACCCC, the binding signal was 0.239 E-score.
As to TGATATCA, the binding signal came out at 0.48 E-score.
The same measure for TACCCGAA: 0.0295 E-score; for GAGAGAAC: -0.068 E-score; for TCAAAACA: -0.102 E-score.
Regarding CTTCCCTA, the binding signal was -0.168 E-score.
The same measure for GAGTGGCC: -0.079 E-score.
On to TCGCATCA, for which the binding signal came out at 0.143 E-score.
The same measure for AAGAGTAA: -0.0905 E-score; for ATTTACTC: -0.0539 E-score; for AGCTCCCT: -0.134 E-score.
Consider GGCTGCAC, for which the binding signal is -0.131 E-score.
The same measure for CTCAAAAA: -0.176 E-score; for GCCTAAGC: -0.123 E-score.
Consider ACGGACGG, for which the binding signal is -0.00363 E-score.
The same measure for CCCGGAAG: -0.0222 E-score; for CCAAAGGC: -0.0887 E-score.
For CAATCTTA, the binding signal is -0.192 E-score.
For CCAAGATA, the binding signal was 0.229 E-score.
Turning to AAATACGA, the binding signal amounted to 0.119 E-score.
For CATCGAGA, the binding signal came out at 0.121 E-score.
For the sequence AGCCGAAT, the binding signal stood at 0.106 E-score.
The same measure for TCAAGTGA: -0.00424 E-score; for ATTGCGCC: -0.0314 E-score.
On to CATCGGAC, for which the binding signal came to 0.0036 E-score.
As to CCTTACTA, the binding signal was -0.0286 E-score.
As to ATAGGCAT, the binding signal came out at 0.0549 E-score.
Take CATGGGTA: the binding signal worked out at 0.0939 E-score.
The same measure for AAGGTGGA: 0.0838 E-score.
Turning to AGACGATG, the binding signal worked out at 0.109 E-score.
With ACGAGCTC, the binding signal was -0.00935 E-score.
The same measure for ACACAATC: 0.0823 E-score; for CCGACGGC: -0.0727 E-score.
With AAAGGGCC, the binding signal is -0.341 E-score.
The same measure for GCCTCTAA: 0.0138 E-score.
TACGGGCA: the binding signal was -0.0221 E-score.
For AATACTAC, the binding signal came out at 0.181 E-score.
The same measure for CAACAATC: 0.0604 E-score.
